PubChem BioAssay AID1476 (National Center for Advancing Translational Sciences (NCATS), 2009)
In all, about 200,000 compounds went through this assay and about 4,500 (2.2%) were called active. The shares of active, inactive and inconclusive entries below differ from those in the screen. The call rests on the fitted dose curve; in most records, active means well fitted inhibition curve with a large enough effect; inconclusive means small, poorly fitted or top-dose-only effect, or effect the other way; inactive means flat fitted curve, though single readings scatter. Where the call is inconclusive, the potency comes from a doubtful curve fit.
Further: nearly all actives have a fitted effect of over 40% in size.
Potency means the concentration at half of the fitted maximal effect; tags describe the fitted curve by direction and shape.
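Wherever max response, negative = inhibition is given: plate controls were enzyme without inhibitor for no effect and buffer without enzyme for full effect.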

These compounds were tested against Cruzipain (Trypanosoma cruzi) (UniProt P25779) (assay: qHTS Assay for Promiscuous and Specific Inhibitors of Cruzain (without detergent)). Details: purified cruzain, Z-FR-AMC fluorescence, no detergent.
UniProt P25779, sequence (P25779 whole entry, looked up): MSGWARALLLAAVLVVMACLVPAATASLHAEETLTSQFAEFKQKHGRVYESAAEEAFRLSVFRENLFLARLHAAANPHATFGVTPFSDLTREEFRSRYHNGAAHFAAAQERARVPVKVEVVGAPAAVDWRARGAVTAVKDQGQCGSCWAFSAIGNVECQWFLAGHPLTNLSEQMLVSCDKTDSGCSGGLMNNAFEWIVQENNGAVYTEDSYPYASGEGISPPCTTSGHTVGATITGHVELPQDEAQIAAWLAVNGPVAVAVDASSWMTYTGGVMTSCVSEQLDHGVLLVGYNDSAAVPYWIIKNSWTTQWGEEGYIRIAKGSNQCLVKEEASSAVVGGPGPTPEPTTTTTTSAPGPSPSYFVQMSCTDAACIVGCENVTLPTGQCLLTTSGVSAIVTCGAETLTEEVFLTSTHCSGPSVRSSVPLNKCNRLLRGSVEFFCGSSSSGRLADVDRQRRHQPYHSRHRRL
Method in brief: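 Purified cruzain at 1.5 nM, pre-incubated 15 min with compound at room temperature in 100 mM sodium acetate pH 5.5, 5 mM DTT, 0.00005% Triton X-100. Reaction started with 2 uM Z-FR-AMC; AMC fluorescence increase over 60 s gives rate.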
For CCN1C(=O)c2ccccc2Sc2ccc(NC(=O)COc3ccc(Cl)cc3)cc21, the Potency was inconclusive: 25.1 µM [inhibitor, single point]. CC(=O)c1sc(NC(=O)c2cccc3ccccc23)nc1C was tested, and the Potency was inconclusive: 39.8 µM [inhibitor, single point]. In the case of O=S(=O)(c1ccc(Br)s1)N1CCC(Cc2ccccc2)CC1, the Potency is reported as inconclusive: 12.6 µM [inhibitor, partial curve, poor fit]. With Cc1cccc(OCCCCn2c(C3CC(=O)N(c4ccccc4Cl)C3)nc3ccccc32)c1 (stereo not given) the max response, negative = inhibition was inactive: 17.6%. With Cc1ccsc1-c1nc(C(N)=O)c2[nH]c(=O)n(-c3ccc(Cl)cc3)c2n1 the Potency was active: 10 µM. In the case of Cn1c(=O)n(C/C=C/c2ccccc2)c(=O)c2c1nc1n2CCN1c1ccc(F)cc1, the max response, negative = inhibition is reported as inactive: -6.05%. In the case of COc1cccc(N2C(=O)C3ON(c4ccccc4)C(c4cccs4)C3C2=O)c1 (stereo not given), the Potency is reported as inconclusive: 31.6 µM [inhibitor, single point]. Cc1ccc2nc(-c3ccc(N4C(=O)CC(N5CCC(C(N)=O)CC5)C4=O)cc3)sc2c1 (stereo not given) was tested, and the Potency was inconclusive: 15.8 µM [activator, partial curve]. CC1=C(C(=O)Nc2ccc(Cl)cc2)C(c2ccccc2C)n2ncc(C(=O)Nc3ccc(C)cc3)c2N1 (stereo not given) was tested, and the Potency was active: 31.6 µM. In the case of CC1CCC(C(C)C)C(OC(=O)CSc2nc(N)cc(=O)[nH]2)C1 (stereo not given), the Potency is reported as inconclusive: 39.8 µM [inhibitor, single point]. For O=C(Nc1cccc2ccccc12)c1nn(C23CC4CC(CC(C4)C2)C3)cc1[N+](=O)[O-], the Potency was inconclusive: 39.8 µM [inhibitor, single point]. With COc1cccc(NC(=O)Nc2nnc(-c3ccccc3SCc3ccccc3)s2)c1 the Potency was active: 3.16 µM. O=C(N/N=C/c1cccc(C(F)(F)F)c1)c1cc2c(s1)-c1ccccc1CC2 was tested, and the Potency was inconclusive: 3.98 µM [inhibitor, full curve, poor fit]. For CCCC1CCc2c(c3ccccc3[nH]c2=O)O1 (stereo not given), the Potency was inconclusive: 39.8 µM [inhibitor, single point]. With CC(C)C(NC(=O)c1ccco1)C(=O)NCC(c1ccco1)N1CCCCC1 (stereo not given) the Potency was inconclusive: 25.1 µM [inhibitor, partial curve]. In the case of COc1ccc(OC)c(-c2nc3c(C#N)c[nH]n3c2NC2CCCCC2)c1, the Potency is reported as inconclusive: 39.8 µM [activator, single point]. For COc1ccc(/C=N/c2c(-c3ccco3)nc3ccccn23)cc1OC, the Potency was inconclusive: 39.8 µM [inhibitor, single point]. With CCOc1cc(N2CCOCC2)c(OCC)cc1NC(=O)CC12CC3CC(CC(C3)C1)C2 the Potency was inconclusive: 31.6 µM [activator, partial curve]. For Cc1ccccc1C(=O)N(Cc1ccc(N(C)C)cc1)Cc1ccco1, the max response, negative = inhibition was inactive: -23.1%. For COc1cc(NC(=O)COC(=O)C2CC2)c(C)cc1[N+](=O)[O-], the max response, negative = inhibition was inactive: -1.76%. Cc1oc(C)c2c(=O)ccc3c(c12)OC(N)=C(C#N)C3c1ccccc1Cl (stereo not given) was tested, and the Potency was inconclusive: 39.8 µM [inhibitor, single point]. With O=C(OCc1nc2scc(-c3ccccc3)c2c(=O)[nH]1)c1cccc([N+](=O)[O-])c1 the Potency was active: 25.1 µM. For CC(C)[C@@H](CC(=O)N[C@@H]1CCNC[C@H]1C(=O)N[C@H](CC(=O)N[C@@H](CCC(=O)O)CC(=O)O)Cc1c[nH]c2ccccc12)NC(=O)C[C@H](CO)NC(=O)[C@@H]1CCCC[C@H]1N, the max response, negative = inhibition was inactive: -6.02%. For CC(C)OCCCNc1ncnc2c1[nH]c1ccc(F)cc12, the max response, negative = inhibition was inactive: -22.4%. In the case of COc1ccccc1CNC(=O)Cc1c(C)c2c(cc(C)c3c(C)coc32)oc1=O, the max response, negative = inhibition is reported as inactive: -5.58%. For COc1ccc(Br)cc1CNC(=O)C1CCCN(c2nc3ccccc3o2)C1 (stereo not given), the Potency was inconclusive: 31.6 µM [activator, single point]. For Cc1ccc(Cn2ccc(NC(=O)c3cc(-c4ccc5c(c4)OCO5)on3)n2)cc1, the Potency was inconclusive: 3.16 µM [inhibitor, full curve]. With O=C(NC1CCCC1)c1ccc2c(c1)N(Cc1ccc(C(F)(F)F)cc1)C(=O)c1ccccc1S2 the Potency was inconclusive: 39.8 µM [inhibitor, single point]. For Cc1ccc(NC(=O)CN2C(=O)CCc3cc(S(=O)(=O)N4CCOCC4)ccc32)cc1N(C)C, the max response, negative = inhibition was inactive: -5.48%. For CCOC(=O)N1CCN(C(c2ccc(F)cc2)c2sc3nc(C)nn3c2O)CC1 (stereo not given), the Potency was inconclusive: 25.1 µM [activator, single point]. In the case of COc1ccc(N(C(=O)c2ccn[nH]2)C(C(=O)NC(C)(C)C)c2ccc(F)cc2)cc1 (stereo not given), the Potency is reported as inconclusive: 39.8 µM [activator, single point]. For Cc1ccc(-c2cn(-c3cccc(Cl)c3)c(S(=O)(=O)CC(=O)Nc3ccccc3F)n2)cc1, the Potency was active: 15.8 µM. CC(C)(C)n1nnnc1C(c1cccc(C(F)(F)F)c1)N1CCOCC1 (stereo not given) was tested, and the Potency was inconclusive: 31.6 µM [activator, single point]. With O=C(c1ccco1)N1CCN(C(=O)C2Cc3ccccc3CN2S(=O)(=O)c2ccc(F)cc2)CC1 (stereo not given) the Potency was inconclusive: 39.8 µM [activator, single point]. In the case of Cc1ccc(NC(=O)c2oc3ccccc3c2NC(=O)c2ccc3c(c2)OCO3)cc1, the Potency is reported as inconclusive: 25.1 µM [inhibitor, single point]. With Cc1nn2c(=O)cc(COC(=O)c3ccccc3NC(=O)C(C)Oc3ccccc3)nc2s1 (stereo not given) the max response, negative = inhibition was inactive: 0.0656%. In the case of CC(C)c1ccc(NS(=O)(=O)c2ccc3nc(-c4ccccc4)[nH]c3c2)cc1, the max response, negative = inhibition is reported as inactive: 12.9%. For O=C(CSc1ccc(Cl)cc1)N1CCC(c2nc3ccccc3s2)CC1, the Potency was inconclusive: 31.6 µM [activator, single point]. COc1ccc(C)cc1NC(=O)Cn1c(=O)n(Cc2nc(C)no2)c(=O)c2ccccc21 was tested, and the max response, negative = inhibition was inactive: 15.9%. Clc1cccc(N/N=C(\Cc2nc3ccccc3[nH]2)c2ccccc2)c1 was tested, and the Potency was inconclusive: 39.8 µM [inhibitor, single point].
